For 9 compounds, AC50 results are on record in PubChem BioAssay (NCATS).

In general, AC50 refers to the midpoint of the concentration-response curve, whichever way the signal moves.

Some of the results follow. The main result of the screen is listed elsewhere. These columns were measured beside it and carry no call. Potencies come from curve fits of mixed quality, noted in brackets.
Tags give direction and shape of the fitted curve.

A short description of the test: qHTS drug screen for cell cycle checkpoint inhibitors in PARPi-resistant BRCA-mutant ovarian cancer cell lines. (AID 1963452). To be noted: PEO1/OlaR viability, CellTiter-Glo luminescence, 96 h; measured here: PEO1 parental viability. The gist of the method: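 PEO1, PEO4 and PEO1/OlaR ovarian cancer cells, 600 per well, exposed 96 h at 37C to a dilution series. Viability read by CellTiter-Glo luminescence, normalized to DMSO and empty wells; activity summarized as Z-AUC.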
(In general: qHTS replaces the single test concentration by a dilution series.)
Consider `COC(=O)C1=C(C)NC(C)=C(C(=O)OCCN2CCN(C(c3ccccc3)c3ccccc3)CC2)C1c1cccc([N+](=O)[O-])c1` (centres undefined), for which the AC50 is 13.8 µM [falling, partial curve, poor fit].

As for `COc1cc(N2CCN(C)CC2)ccc1Nc1ncc2c(n1)N(C)c1ccccc1C(=O)N2C`, the AC50 is 19.5 µM [falling, partial curve].

On to `O=C(Nc1ccnc(NC(=O)C2CC2)c1)c1c(Cl)cccc1Cl`, for which the AC50 is 13.8 µM [falling, partial curve].

`CC(/C=C/C(=O)NO)=C\[C@@H](C)C(=O)c1ccc(N(C)C)cc1`: the AC50 was 0.776 µM [falling, full curve].

In the case of `CCCCCCCOc1ccc(CCC(N)(CO)CO)cc1C(F)(F)F`, the AC50 is 19.5 µM [falling, single point].

Consider `O=C(/C=C\n1cnc(-c2cc(C(F)(F)F)cc(C(F)(F)F)c2)n1)N1CC(F)(F)C1`, for which the AC50 was 0.195 µM [falling, full curve].

Turning to `CN(C)C/C=C/C(=O)Nc1cc2c(Nc3ccc(F)c(Cl)c3)ncnc2cc1O[C@H]1CCOC1`, the AC50 is 4.9 µM [falling, partial curve, poor fit].

`COc1ccc(/C=C\c2cc(OC)c(OC)c(OC)c2)cc1O`: the AC50 is 0.0049 µM [falling, full curve].

With `CO[C@H]1/C=C\C=C(\C)C(=O)NC2=CC(=O)C(NCCN(C)C)=C(C[C@@H](C)C[C@H](OC)[C@H](O)[C@@H](C)/C=C(/C)[C@@H]1OC(N)=O)C2=O`, the AC50 was 0.347 µM [falling, full curve].
